Experimental data from publication PMC6212790.
The other results are listed elsewhere or left out. At the low end of the ranking the order means little.
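Note: rank score from −0.5 (least bound) to 0.5 (best bound).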

The sequences below were run against T1, GST-Rok-C97-191 (UniProt O34857) (assay: protein binding microarray). Conditions: Rok is a gene silencer of Bacillus subtilis; high values mean tight binding; most listed sequences are background and not binding sites; double strand, one strand shown.
T1 sequence: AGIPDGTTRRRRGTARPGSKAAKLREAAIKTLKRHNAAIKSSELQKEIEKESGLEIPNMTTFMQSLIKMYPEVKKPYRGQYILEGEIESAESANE
CCAGTAGC gave a binding signal of 0.213 E-score.
For GGAAGAAC, the binding signal was -0.18 E-score.
CACCGATC was tested, and the binding signal was -0.139 E-score.
With CGCAGTGA the binding signal was -0.114 E-score.
For CAGGCTAA, the binding signal was -0.0564 E-score.
CTGGTCGC showed a binding signal of -0.155 E-score.
CCATATCC gave a binding signal of -0.00318 E-score.
Work on AGTGCGGC yielded a binding signal of -0.129 E-score.
GTCGGTGA was tested, and the binding signal was -0.0594 E-score.
AAATGCCG gave a binding signal of 0.142 E-score.
With AATGAACG the binding signal was 0.0378 E-score.
CAGATCCC gave a binding signal of -0.145 E-score.
Work on ATAAGGTA yielded a binding signal of 0.176 E-score.
CCATAACG gave a binding signal of -0.0217 E-score.
For CACGACCG, the binding signal was -0.153 E-score.
With CCATCCCA the binding signal was -0.162 E-score.
GCTCCGAC gave a binding signal of -0.133 E-score.
With CCAACACG the binding signal was -0.123 E-score.
For CACGATAG, the binding signal was 0.161 E-score.
For AAACACTT, the binding signal was -0.00461 E-score.
With GGAGACAA the binding signal was -0.179 E-score.
ACCCTCCA gave a binding signal of -0.125 E-score.
CCTTTTAG showed a binding signal of 0.0597 E-score.
In the case of GGTTACAC, the binding signal is reported as -0.0727 E-score.
GGGTGAAA showed a binding signal of 0.0555 E-score.
In the case of ACGACTTG, the binding signal is reported as 0.0669 E-score.
In the case of ACCCCCCT, the binding signal is reported as -0.275 E-score.
For AAAACCAC, the binding signal was -0.0707 E-score.
GTTACATA was tested, and the binding signal was 0.302 E-score.
Sequence AAAGATAT has a binding signal of 0.266 E-score.
CCAGCAGG gave a binding signal of -0.275 E-score.
AACCAACC gave a binding signal of -0.0154 E-score.
CGACACCC was tested, and the binding signal was -0.2 E-score.
For ACCGCGAC, the binding signal was -0.0314 E-score.
Sequence CCCTTCCG has a binding signal of -0.284 E-score.
For CTTCACCA, the binding signal was -0.104 E-score.
GAATGACA was tested, and the binding signal was -0.0644 E-score.
Work on ACACGGCC yielded a binding signal of -0.212 E-score.
GAGGGTCA was tested, and the binding signal was -0.211 E-score.
In the case of CAGGAGTA, the binding signal is reported as 0.0915 E-score.
Work on ACTTTAGC yielded a binding signal of 0.00825 E-score.
Work on AACAGGAA yielded a binding signal of -0.11 E-score.
Sequence CGGCTCAA has a binding signal of -0.0709 E-score.
ACACACAA showed a binding signal of -0.0584 E-score.
GATCCCAC showed a binding signal of 0.13 E-score.
With CGCAGCAG the binding signal was -0.172 E-score.
ACTCAGTG gave a binding signal of -0.201 E-score.
AGCTAAGA showed a binding signal of -0.0157 E-score.
ATGATATC showed a binding signal of 0.162 E-score.
ATTCCTGC gave a binding signal of 0.182 E-score.
Work on CAATACAA yielded a binding signal of 0.18 E-score.
ATTGCTCC gave a binding signal of 0.0699 E-score.
CCAGTTCG showed a binding signal of -0.177 E-score.
Sequence ACATCCAG has a binding signal of 0.077 E-score.
With ACGCTTTG the binding signal was -0.0944 E-score.
For CATGGTAG, the binding signal was 0.188 E-score.
GCTAAGGA gave a binding signal of -0.139 E-score.
GATCGCTA gave a binding signal of 0.0703 E-score.
Work on GGGGTCGA yielded a binding signal of -0.242 E-score.
With GACGGCAC the binding signal was -0.208 E-score.
In the case of ACGAACGG, the binding signal is reported as 0.000593 E-score.
CTCTGAAA showed a binding signal of 0.0126 E-score.
AATGAATT gave a binding signal of 0.251 E-score.
Sequence CGGCACAG has a binding signal of -0.13 E-score.
CGAACCCG gave a binding signal of -0.112 E-score.
Sequence CTAAGAGA has a binding signal of -0.0124 E-score.
AATCTGAC was tested, and the binding signal was -0.0891 E-score.
CCTATCAC showed a binding signal of 8.72e-05 E-score.
With AGTCAGCG the binding signal was -0.0245 E-score.
AACAGAAG gave a binding signal of 0.0489 E-score.
CCCTGTTC gave a binding signal of -0.306 E-score.
In the case of AATGAGCT, the binding signal is reported as -0.18 E-score.
With GCCTAGGA the binding signal was -0.106 E-score.
Work on GCCGAGCA yielded a binding signal of -0.191 E-score.
In the case of CCCATTCC, the binding signal is reported as -0.0523 E-score.
In the case of CAGAGCAG, the binding signal is reported as -0.21 E-score.
With GCAGAAGC the binding signal was -0.209 E-score.
AAGCCCGA showed a binding signal of -0.0721 E-score.
CATGTACC was tested, and the binding signal was 0.227 E-score.
AACGTGGC was tested, and the binding signal was -0.0901 E-score.
Work on GCCGCACC yielded a binding signal of -0.283 E-score.
Sequence AGGGCGCC has a binding signal of -0.19 E-score.
With GTAGCGAC the binding signal was 0.111 E-score.
Work on TCTTGCAA yielded a binding signal of 0.083 E-score.
CGTAGACC showed a binding signal of -0.165 E-score.
AACACCAG gave a binding signal of 0.034 E-score.
With TAAACGGA the binding signal was 0.00328 E-score.
In the case of CAACACCG, the binding signal is reported as -0.114 E-score.
AGTCTGCC showed a binding signal of -0.283 E-score.
GCTCAAAA was tested, and the binding signal was -0.0164 E-score.
For AAACGAAT, the binding signal was 0.112 E-score.
AGGGCGAG showed a binding signal of -0.216 E-score.
AGACTGAT was tested, and the binding signal was -0.044 E-score.
CAAGGACA gave a binding signal of -0.144 E-score.
Work on CGAGCCGC yielded a binding signal of -0.316 E-score.
Work on AACATAAA yielded a binding signal of -0.0782 E-score.
In the case of GCCCCACC, the binding signal is reported as -0.231 E-score.
With AACATGAT the binding signal was 0.134 E-score.
Sequence CAGGAGGA has a binding signal of -0.208 E-score.
ACCTTCGA showed a binding signal of -0.0758 E-score.
AGACTTCG was tested, and the binding signal was -0.246 E-score.
With GGTAACAA the binding signal was 0.0618 E-score.
For ATATTCTG, the binding signal was 0.237 E-score.
TCCGAGAA was tested, and the binding signal was 0.0252 E-score.
Sequence CCATCTCG has a binding signal of -0.00555 E-score.
Work on GCGCGTTA yielded a binding signal of -0.0591 E-score.
For CTGCCCGC, the binding signal was -0.0908 E-score.
Work on CTGGAGTA yielded a binding signal of -0.086 E-score.
Work on GGCGTGCA yielded a binding signal of -0.127 E-score.
CGTCCGAC showed a binding signal of -0.15 E-score.
GTTGGACA gave a binding signal of -0.19 E-score.
AGATATTA gave a binding signal of 0.356 E-score.
For AATGTTCC, the binding signal was 0.00825 E-score.
With ATCAGGGG the binding signal was -0.0773 E-score.
AGCGCACA showed a binding signal of -0.0886 E-score.
With GATACTGC the binding signal was 0.0173 E-score.
Sequence AACCACGA has a binding signal of -0.00899 E-score.
Work on CTTCGAGA yielded a binding signal of -0.0153 E-score.
Sequence CTACCAAG has a binding signal of -0.0332 E-score.
Sequence AGGAGGTC has a binding signal of -0.283 E-score.
ACCTGTTA showed a binding signal of 0.00671 E-score.
Sequence ATTTTCTG has a binding signal of -0.0553 E-score.
Sequence AGGCCATG has a binding signal of -0.274 E-score.
Work on ATGAGTCC yielded a binding signal of -0.158 E-score.
Work on GACCCTAC yielded a binding signal of -0.133 E-score.
With GTCATATA the binding signal was 0.127 E-score.
ATTCGGGC gave a binding signal of -0.048 E-score.
For ATTCAGAC, the binding signal was -0.229 E-score.
Work on GCACAGCC yielded a binding signal of -0.177 E-score.
In the case of CTTTTCGA, the binding signal is reported as 0.0799 E-score.
In the case of CTTCATAC, the binding signal is reported as 0.0668 E-score.
In the case of GGGGCTTA, the binding signal is reported as -0.195 E-score.
CATCGGAG was tested, and the binding signal was -0.0956 E-score.
With CTTTGTGA the binding signal was -0.0126 E-score.
Sequence ATGAAACA has a binding signal of 0.155 E-score.
Sequence ACTATTCT has a binding signal of 0.217 E-score.
In the case of ATCTTCAA, the binding signal is reported as 0.18 E-score.
CGACAACC showed a binding signal of -0.054 E-score.
For CGGCTACG, the binding signal was -0.0747 E-score.
Sequence CTCAATTC has a binding signal of -0.0794 E-score.
TCAATCCA showed a binding signal of 0.0652 E-score.
Sequence GACCCGAA has a binding signal of -0.174 E-score.
Sequence GTCCTAAA has a binding signal of -0.0241 E-score.
Sequence AAGGCAAG has a binding signal of -0.265 E-score.
Sequence AAGTTAAG has a binding signal of -0.104 E-score.
With AACCTATT the binding signal was 0.276 E-score.
AATCATTA gave a binding signal of 0.164 E-score.
For ATTGTCCG, the binding signal was -0.0512 E-score.
ACGCTGTA gave a binding signal of 0.0711 E-score.
AAGGCAGG was tested, and the binding signal was -0.151 E-score.
ATATACTG gave a binding signal of 0.365 E-score.
For CAGTTCTC, the binding signal was -0.0141 E-score.
Sequence GGCAAATA has a binding signal of 0.171 E-score.
CGTGCGAG was tested, and the binding signal was -0.0807 E-score.
Work on ATAACCGA yielded a binding signal of 0.02 E-score.
With CGTTCGTA the binding signal was 0.0383 E-score.
Sequence ATCCATTA has a binding signal of 0.0903 E-score.
Sequence CTAAGCGA has a binding signal of -0.171 E-score.
For GATCTCCA, the binding signal was -0.0449 E-score.
TCAAGGGA showed a binding signal of 0.102 E-score.
AATCACTG gave a binding signal of -0.0295 E-score.
Sequence CGTGATCC has a binding signal of -0.0857 E-score.
In the case of CCATCGTC, the binding signal is reported as -0.109 E-score.
In the case of ATAGGACG, the binding signal is reported as 0.00789 E-score.
With CTGGAATC the binding signal was -0.0329 E-score.
In the case of AACTCACG, the binding signal is reported as 0.12 E-score.
For AGCCCCTC, the binding signal was -0.272 E-score.
GAGGGGAC was tested, and the binding signal was -0.243 E-score.
AGCTCAAT gave a binding signal of 0.00857 E-score.
For AATCCGGG, the binding signal was -0.14 E-score.
Sequence TCTCTGCA has a binding signal of -0.104 E-score.
With GACATGGA the binding signal was -0.0277 E-score.
